{
  "source": "ChEMBL document CHEMBL4888484",
  "about": "“Replenishing the malaria drug discovery pipeline: Screening and hit evaluation of the MMV Hit Generation Library 1 (HGL1) against asexual blood stage Plasmodium falciparum ,using a nano luciferase reporter read-out” (2022)",
  "note": "About 540 (0.36%) of roughly 150,000 compounds showed an effect of 50% or more. Some of the results follow.",
  "data": [
    {"system": "Plasmodium falciparum", "assay": "Primary screen in NF54 nanoGlo assay, in single point, at 2uM, 72h; a lower Z score goes with more inhibition", "format": "functional, Erythrocyte", "details": "timepoint 72 hour", "units": {"% Inhibition": "%"}, "values": [
      {"smiles": "CCN1CCCC[C@H]1C(=O)NCc1ccccc1CN1CCOCC1", "% Inhibition": -4, "Z score": 0.53},
      {"smiles": "CN(Cc1ccco1)C(=O)Nc1nncs1", "% Inhibition": -18, "Z score": 3.37},
      {"smiles": "O=C([C@@H](c1ccccc1)N1CCC(O)CC1)N1CC(Cc2ccccc2)C1", "% Inhibition": -16, "Z score": 2.2},
      {"smiles": "CCc1c(C)nc(N)nc1NCc1nncn1CCOC", "% Inhibition": -13, "Z score": 1.66},
      {"smiles": "CCc1ncc(CN(C)Cc2cccc(CN(C)C)c2)cn1", "% Inhibition": 5, "Z score": -0.68},
      {"smiles": "Cc1cccnc1CN(Cc1ccccc1)C(=O)c1cc(C#N)cn1C", "% Inhibition": -12, "Z score": 1.26},
      {"smiles": "O=C(CN1C(=O)c2ccccc2C1=O)N1CCN(c2cccc(C(F)(F)F)c2)CC1", "% Inhibition": -3, "Z score": 0.53},
      {"smiles": "CC(C)[C@]1(C)CC(=O)N(CC(=O)NCc2ccc(C(=O)N3CCOCC3)cc2)C1=O", "% Inhibition": -1, "Z score": 0.16},
      {"smiles": "Cc1nn(-c2nc3ccccc3[nH]2)c2c1[C@@H](c1ccc(Cl)c(Cl)c1)CC(=O)N2", "% Inhibition": 14, "Z score": -1.74},
      {"smiles": "CCc1nsc(N2CCCC2C2CCCC2O)n1", "note": "(centres undefined)", "% Inhibition": 2, "Z score": -0.38},
      {"smiles": "Cc1cc(OCC(=O)c2ccc(Br)cc2)ccc1N1C(=O)CCC1=O", "% Inhibition": -10, "Z score": 1.14},
      {"smiles": "COc1ccccc1[C@@H]1CC(c2cccn2C)=NN1C(=O)CN(C)C(=O)c1ccccc1Cl", "% Inhibition": -15, "Z score": 1.43},
      {"smiles": "N#CCc1cccc(NC(=O)NCc2cccc3c2CCNC3)c1", "% Inhibition": -14, "Z score": 1.5},
      {"smiles": "CC1=C(C)C[C@@H](C(=O)NS(=O)(=O)c2c(N)noc2C)CC1", "% Inhibition": 4, "Z score": -0.83},
      {"smiles": "Cc1ccc(-c2noc(CN3CC[N+](C)(Cc4nc(-c5ccc(C)cc5)no4)CC3)n2)cc1", "% Inhibition": 7, "Z score": -0.89},
      {"smiles": "COc1ccc(CC(=O)N2CCc3nc(N4CCCC4)nc(N4CCCCC4)c3C2)cc1", "% Inhibition": -12, "Z score": 1.39},
      {"smiles": "CCC1(CC)NC(=O)N(C[C@H](O)C(F)(F)F)C1=O", "% Inhibition": -18, "Z score": 1.98},
      {"smiles": "Cc1nc(N[C@@H](C)Cn2cncn2)c2cccnc2n1", "% Inhibition": -9, "Z score": 0.89},
      {"smiles": "CCc1ccccc1NC(=O)CN1CCC[C@H](C(=O)Nc2cnccn2)C1", "% Inhibition": -8, "Z score": 1.6},
      {"smiles": "O=C(NCCc1c[nH]c2ccccc12)C1CN(c2nc3c(F)cccc3s2)C1", "% Inhibition": -4, "Z score": 0.61},
      {"smiles": "CN1CC(=O)N(CC(=O)N(Cc2ccccn2)Cc2ccco2)C1=O", "% Inhibition": 16, "Z score": -2.86},
      {"smiles": "NC[C@H]1CCCCN1C(=O)NCc1ccc(-c2cccc(Cl)c2)o1", "% Inhibition": 19, "Z score": -2.54},
      {"smiles": "CNc1cc(C)nc(-c2ccc(C(=O)N(C)[C@@H](C)c3cccs3)cc2)n1", "% Inhibition": -17, "Z score": 2.06},
      {"smiles": "Cc1ccc(F)cc1CN1CC[C@H](O)C1", "% Inhibition": -3, "Z score": 0.25},
      {"smiles": "Cc1ccccc1Cc1nc(-c2ccc(S(=O)(=O)N3CCC(C)CC3)cc2)no1", "% Inhibition": -4, "Z score": 0.72},
      {"smiles": "O=C(c1cc2ccccc2o1)N(C(=O)N1CCCCC1)c1ccccc1", "% Inhibition": -6, "Z score": 0.99},
      {"smiles": "CC[C@@H](CCO)CNc1cnc(C(=O)OC(C)(C)C)cn1", "% Inhibition": -11, "Z score": 1.38},
      {"smiles": "Cc1ccc(-c2nnc(NC(=O)CN3CCOC3=O)s2)cc1", "% Inhibition": -9, "Z score": 1.67},
      {"smiles": "COc1cc(CN2CCN(c3nc(CO)cs3)C[C@@H]2CCO)cc(OC)c1", "% Inhibition": 0, "Z score": -0.06},
      {"smiles": "CC1=C(C(=O)N2CCOCC2)[C@H](c2ccc(OCc3ccccc3)cc2)n2nc(C)nc2N1", "% Inhibition": -5, "Z score": 0.61},
      {"smiles": "O=C(NC1CCCCC1)N1CCC[C@H]1c1nc2cc(-c3ccccc3F)ccc2o1", "% Inhibition": -12, "Z score": 1.3},
      {"smiles": "CN(CCN1CCN(c2ccccc2)CC1)C(=O)C1=COCCC1", "% Inhibition": 3, "Z score": -0.3},
      {"smiles": "Cc1cc(NC(=O)CN2CC[S@@+]([O-])CC2(C)C)no1", "% Inhibition": 7, "Z score": -0.9},
      {"smiles": "O=c1ccc(S(=O)(=O)N2CCCCC2)cn1Cc1ccc(Cl)cc1", "% Inhibition": -9, "Z score": 1.67},
      {"smiles": "O=S(=O)(C1CCCCC1)N1CC(Oc2nccs2)C1", "% Inhibition": -5, "Z score": 0.59},
      {"smiles": "Cc1ccc(S(=O)(=O)N(Cc2nccn2Cc2ccccc2C)C2CCCCC2)cc1", "% Inhibition": -10, "Z score": 1.44},
      {"smiles": "CCc1cccc(NC(=O)CNCc2cscn2)c1", "% Inhibition": -6, "Z score": 1.15},
      {"smiles": "Cc1nc(-c2cc(S(=O)(=O)NC(C)C)cn2C)sc1C(=O)N1CCCCC1", "% Inhibition": -13, "Z score": 1.53},
      {"smiles": "Cc1csc(NC(=O)COC(=O)[C@H](C)N2C(=O)c3cc(Cl)c(Cl)cc3C2=O)n1", "% Inhibition": 1, "Z score": -0.09},
      {"smiles": "O=C(Nc1ccccc1C(=O)O)c1cc(Cl)c(Cl)c(S(=O)(=O)N2CCOCC2)c1", "% Inhibition": -26, "Z score": 3.1},
      {"smiles": "N#Cc1ccc(OC2CCN(C(=O)Nc3cccnc3)CC2)cc1", "% Inhibition": -17, "Z score": 2.11},
      {"smiles": "CCc1nc2cc(CNS(=O)(=O)C3CC3)ccc2n1C1CC1", "% Inhibition": 14, "Z score": -1.32}
    ]}
  ]
}
